{"source": "the supplement of paper PMC12645437", "about": "“Orthogonal IMiD-Degron Pairs Induce Selective Protein Degradation in Cells” (ACS Chemical Biology, 2025)", "sequences": {"B1": {"name": "Q9UKT9 (peptide)", "chain": "FICDICGATFTQKGNLLRHIKL"}, "B2": {"name": "Q9UKT9 (peptide)", "chain": "FACEVCGATFTQKGNLLRHIKL"}, "B3": {"name": "Q9UKT9 (peptide)", "chain": "FFCPICGHNFTQKGNLLRHIKL"}, "B4": {"name": "Q9UKT9 (peptide)", "chain": "LKCPICGFKCTQKGNLLRHIKL"}, "B5": {"name": "Q9UKT9 (peptide)", "chain": "FQCNQCGASFTQKGNLLRHIKL"}, "B6": {"name": "Q9UKT9 (peptide)", "chain": "FGCSVCGHLFTQKGNLLRHIKL"}, "B7": {"name": "Q9UKT9 (peptide)", "chain": "FNCNICGAMFTQKGNLLRHIKL"}, "B8": {"name": "Q9UKT9 (peptide)", "chain": "FQCNVCGAAFTQKGNLLRHIKL"}, "B9": {"name": "Q9UKT9 (peptide)", "chain": "FSCDQCGAPFTQKGNLLRHIKL"}, "B10": {"name": "Q9UKT9 (peptide)", "chain": "LTCNQCGFECTQKGNLLRHIKL"}, "B11": {"name": "Q9UKT9 (peptide)", "chain": "FHCSVCGHAFTQKGNLLRHIKL"}, "B12": {"name": "Q9UKT9 (peptide)", "chain": "FWCPICGRPFTQKGNLLRHIKL"}, "B13": {"name": "Q9UKT9 (peptide)", "chain": "FKCDICGARFTQKGNLLRHIKL"}, "B14": {"name": "Q9UKT9 (peptide)", "chain": "FQCEICGRGFTQKGNLLRHIKL"}, "B15": {"name": "Q9UKT9 (peptide)", "chain": "FCCEICGRTFTQKGNLLRHIKL"}, "B16": {"name": "Q9UKT9 (peptide)", "chain": "FKCEQCGAVFTQKGNLLRHIKL"}, "B17": {"name": "Q9UKT9 (peptide)", "chain": "FNCDQCGACFTQKGNLLRHIKL"}, "B18": {"name": "Q9UKT9 (peptide)", "chain": "FRCPICGHYFTQKGNLLRHIKL"}, "B19": {"name": "Q9UKT9 (peptide)", "chain": "FCCPICGHIFTQKGNLLRHIKL"}, "B20": {"name": "Q9UKT9 (peptide)", "chain": "FWCDQCGAEFTQKGNLLRHIKL"}, "B21": {"name": "Q9UKT9 (peptide)", "chain": "FLCPICGHGFTQKGNLLRHIKL"}, "B22": {"name": "Q9UKT9 (peptide)", "chain": "FYCNICGALFTQKGNLLRHIKL"}, "B23": {"name": "Q9UKT9 (peptide)", "chain": "FKCNQCGRVFTQKGNLLRHIKL"}, "B24": {"name": "Q9UKT9 (peptide)", "chain": "FTCPICGHPFTQKGNLLRHIKL"}, "B25": {"name": "Q9UKT9 (peptide)", "chain": "FCCPICGAFFTQKGNLLRHIKL"}, "B26": {"name": "Q9UKT9 (peptide)", "chain": "LTCNQCGFSCTQKGNLLRHIKL"}, "B27": {"name": "Q9UKT9 (peptide)", "chain": "LCCEICGFKCTQKGNLLRHIKL"}, "B28": {"name": "Q9UKT9 (peptide)", "chain": "FACEVCGADFTQKGNLLRHIKL"}, "B29": {"name": "Q9UKT9 (peptide)", "chain": "FSCEVCGAFFTQKGNLLRHIKL"}, "B30": {"name": "Q9UKT9 (peptide)", "chain": "FTCPVCGAAFTQKGNLLRHIKL"}, "B31": {"name": "Q9UKT9 (peptide)", "chain": "FECPICGAVFTQKGNLLRHIKL"}, "B32": {"name": "Q9UKT9 (peptide)", "chain": "LVCNQCGFTCTQKGNLLRHIKL"}}, "note": "The list shows a part of the results.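 Further: jurkat cells carrying a lentiviral library of mutant zinc finger degrons fused to EGFP plus mCherry, mCherry+ cells FACS sorted, degron abundance counted by next-generation sequencing.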", "data": [{"molecular_target": "no compound (DMSO)", "experiment": "log2 fold change of degron read counts, EGFP-low vs EGFP+ sorted cells; higher = lower degron-EGFP level without compound (poor expression or instability)", "details": "compound: DMSO control; 18 h", "values": [{"sequence": "B1", "log2 fold change of degron read counts": -1.31}, {"sequence": "B2", "log2 fold change of degron read counts": -0.538}, {"sequence": "B3", "log2 fold change of degron read counts": 0.55}, {"sequence": "B4", "log2 fold change of degron read counts": -0.651}, {"sequence": "B5", "log2 fold change of degron read counts": -1.32}, {"sequence": "B6", "log2 fold change of degron read counts": 0.406}, {"sequence": "B7", "log2 fold change of degron read counts": -0.338}, {"sequence": "B8", "log2 fold change of degron read counts": -0.874}, {"sequence": "B9", "log2 fold change of degron read counts": -1.07}, {"sequence": "B10", "log2 fold change of degron read counts": -0.518}, {"sequence": "B11", "log2 fold change of degron read counts": -0.546}, {"sequence": "B12", "log2 fold change of degron read counts": 0.473}, {"sequence": "B13", "log2 fold change of degron read counts": -1.93}, {"sequence": "B14", "log2 fold change of degron read counts": -2.12}, {"sequence": "B15", "log2 fold change of degron read counts": -1.93}, {"sequence": "B16", "log2 fold change of degron read counts": -1.64}, {"sequence": "B17", "log2 fold change of degron read counts": -1.46}, {"sequence": "B18", "log2 fold change of degron read counts": 0.666}, {"sequence": "B19", "log2 fold change of degron read counts": -0.12}, {"sequence": "B20", "log2 fold change of degron read counts": -0.688}, {"sequence": "B21", "log2 fold change of degron read counts": -0.807}, {"sequence": "B22", "log2 fold change of degron read counts": 0.593}, {"sequence": "B23", "log2 fold change of degron read counts": -0.432}, {"sequence": "B24", "log2 fold change of degron read counts": 0.224}, {"sequence": "B25", "log2 fold change of degron read counts": 0.646}, {"sequence": "B26", "log2 fold change of degron read counts": -0.993}, {"sequence": "B27", "log2 fold change of degron read counts": -0.139}, {"sequence": "B28", "log2 fold change of degron read counts": -4.13}, {"sequence": "B29", "log2 fold change of degron read counts": -1.31}, {"sequence": "B30", "log2 fold change of degron read counts": 0.0822}, {"sequence": "B31", "log2 fold change of degron read counts": 0.12}, {"sequence": "B32", "log2 fold change of degron read counts": -1.14}]}]}
